From article PMC7819943, “Rice protein-binding microarrays: a tool to detect cis-acting elements near promoter regions in rice”
This is one part of the list.

Target: T1, OsWOX13 (Oryza sativa, UniProt Q5QMM3 1-267)
T1 sequence: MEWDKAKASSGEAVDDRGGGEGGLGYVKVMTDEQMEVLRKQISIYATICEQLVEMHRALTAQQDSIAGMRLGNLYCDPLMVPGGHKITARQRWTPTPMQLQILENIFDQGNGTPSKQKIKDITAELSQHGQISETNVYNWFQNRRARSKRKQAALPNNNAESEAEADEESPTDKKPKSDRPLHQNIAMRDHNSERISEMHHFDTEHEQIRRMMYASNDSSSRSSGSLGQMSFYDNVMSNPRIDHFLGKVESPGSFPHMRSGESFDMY
Experiment: protein-binding microarray (RPBM); PBS, 2% BSA, 51.3 ng/ul salmon testes DNA, 50 uM zinc acetate, 200 nM TF, 25 C, 1 h; high values mean tight binding
Conditions: protein: recombinant; tags: N-terminal polyhistidine and DsRed monomer fusion (pET32a); label: CyDye5-dUTP incorporated in the synthesized complementary strand; 3' TTTTT single-stranded linker to array surface; dsDNA, one strand shown
Summary of the method: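 Using Ni–NTA, transcription factors fused N-terminally to polyhistidine and DsRed were purified after expression in E. coli BL21-CodonPlus. These were incubated at 200 nM with a blocked, double-stranded custom Agilent array for 1 h at 25 °C in a buffer containing 50 µM zinc acetate, and the array was washed. The binding signal is per-feature fluorescence intensity (arbitrary units) on an Axon 4000B scanner.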

Sequence | binding signal
CCATAGATAATTTAAGATAACACATAATCTGCCGGGAATTCGGAGTCACCTAGTGCAG | 12300 fluorescence intensity (a.u.)
CCGTCAATCTCAATCTCCCACTGCCCAACTATTTAAGCAGCGGAGTCACCTAGTGCAG | 14600 fluorescence intensity (a.u.)
TCAGATTAGCAATGATTAAGGGATCAACAGTTGAGCGAATCGGAGTCACCTAGTGCAG | 42700 fluorescence intensity (a.u.)
ATTATTTGTCTAAATTTAAATTCTATACCGTGACAAATATCGGAGTCACCTAGTGCAG | 7060 fluorescence intensity (a.u.)
GATTAATTAGGCTCAATAAATTTGTCTCGCGAATTAGTTTCGGAGTCACCTAGTGCAG | 21900 fluorescence intensity (a.u.)
CACATATGGTGATTGGAAATTTAATTAACCTCTTCCCCTACGGAGTCACCTAGTGCAG | 46600 fluorescence intensity (a.u.)
CCCAATTAAATTGCACCTTATACGGTGCTACTGCTGTGTCCGGAGTCACCTAGTGCAG | 24100 fluorescence intensity (a.u.)
TATAACCAATTTAGAATTTAATTAACAAGGTAATTGTTGTCGGAGTCACCTAGTGCAG | 13400 fluorescence intensity (a.u.)
ACGTAATTAGTTTTATAAGTAGTCTATATTTAATACTCTACGGAGTCACCTAGTGCAG | 12200 fluorescence intensity (a.u.)
ATCTGGCAATAATTTACAATTAATTGATACCTTATTGCCTCGGAGTCACCTAGTGCAG | 54800 fluorescence intensity (a.u.)
TCAAAATTTCCAATGAAAATTGAAAATTTTCCCTCCGCAACGGAGTCACCTAGTGCAG | 7910 fluorescence intensity (a.u.)
GACACATCACATACTTTAATTTGGCGATAAAACACATGTGCGGAGTCACCTAGTGCAG | 3430 fluorescence intensity (a.u.)
TGCATGACTGTGGAATTACTCCTGATGAGCATACCATTTCCGGAGTCACCTAGTGCAG | 8880 fluorescence intensity (a.u.)
CTGATTACAAGATATAAGTATCATCAACAGAACAATACACCGGAGTCACCTAGTGCAG | 3650 fluorescence intensity (a.u.)
GTAATTTTCTTCTGTCTAAATTAAAATATATACAATCATCCGGAGTCACCTAGTGCAG | 9310 fluorescence intensity (a.u.)
TCCGGGCCCTGTCAATTTAACCGCTGCGATTGTTGAGAAACGGAGTCACCTAGTGCAG | 5540 fluorescence intensity (a.u.)
CTTTCAATCAGGTCTCACTCTCACATTTCAGTTTAGGGGACGGAGTCACCTAGTGCAG | 20000 fluorescence intensity (a.u.)
GTATGAATTGACTATAGGTGAATTGGAGTCATTAATGGGCCGGAGTCACCTAGTGCAG | 12000 fluorescence intensity (a.u.)
GATGCATAATATTTATCAATTAGGATTCAAATTCGGTTGCCGGAGTCACCTAGTGCAG | 4210 fluorescence intensity (a.u.)
CAATCTTTGATTAGTTGGTTGCGTCTCTAGGCTGCAGCAACGGAGTCACCTAGTGCAG | 4290 fluorescence intensity (a.u.)
TTAAATTTATACCCCACTTATATCTCACTTACACATCACTCGGAGTCACCTAGTGCAG | 7930 fluorescence intensity (a.u.)

Sequence | binding signal
TATATAAATCAATTTAGCCATGAAGGATATTTCGTTGAAGCGGAGTCACCTAGTGCAG | 10400 fluorescence intensity (a.u.)
AGGTGACGGAAAATTTATAAAATTTCAGACGCCTAAAATGCGGAGTCACCTAGTGCAG | 5920 fluorescence intensity (a.u.)
ATGTTAATGCAAAATAAATTAAATACATAGCAAGGTACTACGGAGTCACCTAGTGCAG | 11200 fluorescence intensity (a.u.)
CTATTAGATTGCAGGTTTCGTGGCTAGATTAGGCTTTAGCCGGAGTCACCTAGTGCAG | 8360 fluorescence intensity (a.u.)
CTTGACTGACCACTGCAACTTCGTCTCCTCTCCCCTTAAACGGAGTCACCTAGTGCAG | 15400 fluorescence intensity (a.u.)
ATAAGTGACAGCCCTGTTATCTTGAATGTGGACTGTGACACGGAGTCACCTAGTGCAG | 3920 fluorescence intensity (a.u.)
AACATCAAGATTGGAGAACAGGATTAGCTGAAGTTAGACGCGGAGTCACCTAGTGCAG | 12800 fluorescence intensity (a.u.)
TGTTATTGATTTCTATATAATACATTGGAGTTTCAAAACTCGGAGTCACCTAGTGCAG | 22700 fluorescence intensity (a.u.)
GGTTAGGGTTTGGGGTGGGGAGGGGTGGATGCGCGTGGGCCGGAGTCACCTAGTGCAG | 13700 fluorescence intensity (a.u.)
TATAACCTTAAATTTTCTATCATACATCAAACACATGTTTCGGAGTCACCTAGTGCAG | 3380 fluorescence intensity (a.u.)
TCAATTGTTCTTAATTTGACAAGGCTAATGCTTACATTTTCGGAGTCACCTAGTGCAG | 5380 fluorescence intensity (a.u.)
CAACGCGGCTGATTGTGATTATGGTTAGAATTGTGTGTTTCGGAGTCACCTAGTGCAG | 11400 fluorescence intensity (a.u.)
CCTCTCCGAGATTAGTAATTTTCATTGCTATCGAGAGAGCCGGAGTCACCTAGTGCAG | 3860 fluorescence intensity (a.u.)
GTGATTGGCGTAGACGAGAGGGTTGAATGAGTTCTGGCAACGGAGTCACCTAGTGCAG | 33300 fluorescence intensity (a.u.)
ACAAGATAGATTAAACTAGTTTTATATTAATATGCATGCTCGGAGTCACCTAGTGCAG | 28700 fluorescence intensity (a.u.)
ACATAATTAATGCTCCCTTAACATGTTGATCATACAATTACGGAGTCACCTAGTGCAG | 18500 fluorescence intensity (a.u.)
AAGTTAATGAGATGTCTATAGCATTAAATAAGCTGTCATCCGGAGTCACCTAGTGCAG | 5910 fluorescence intensity (a.u.)
ACTAAACAGATTTTCTTTAAAGTTTATGCAGAAAAGTTTCCGGAGTCACCTAGTGCAG | 6910 fluorescence intensity (a.u.)
TAGATTGCTTGCAGATTAAATAATTTTCTTTTATGGTGATCGGAGTCACCTAGTGCAG | 11700 fluorescence intensity (a.u.)
GTAAATCACTTGATCGATCCATCCATCCATACAATGTGCACGGAGTCACCTAGTGCAG | 3360 fluorescence intensity (a.u.)
TAGGAATGTCAATTAAATTCTTCAAGTCATGTTCGTGGTTCGGAGTCACCTAGTGCAG | 15100 fluorescence intensity (a.u.)
